# Assays:
# [1] = target: indoleamine 2, 3-dioxygenase (IDO1) (Homo sapiens, UniProt P14902); assay: IDO1 PBMC RapidFire MS assay (kynurenine detection by mass spectrometry); type: cell-based; settings: human PBMC stimulated with IFN-γ and LPS, 2 days, read-out: PBMC pIC50 (converted)
# Protocol: Compounds of the present invention were tested via high-throughput cellular assays utilizing detection of kynurenine via mass spectrometry and cytotoxicity as end-points. […] Compounds with IDO1 inhibitory properties decreased the amount of kynurenine produced by the cells via the tryptophan catabolic pathway. Cellular toxicity due to the effect of compound treatment was measured using CellTiter-Glo® reagent (CTG) (Promega Corporation, Madison, Wis.), which is based on luminescent detection of ATP, an indicator of metabolically active cells.
# In preparation for the assays, test compounds were serially diluted 3-fold in DMSO from a typical top concentration of 1mM or 5 mM and plated at 0.5 μL in 384-well, polystyrene, clear bottom, tissue culture treated plates with lids (Greiner Bio-One, Kremsmunster, Austria) to generate 11-point dose response curves. Low control wells (0% kynurenine or 100% cytotoxicity) contained either 0.5 μL of DMSO in the presence of unstimulated (-IFN-γ/-LPS) PBMCs for the mass spectrometry assay or 0.5 μL of DMSO in the absence of cells for the cytotoxicity assay, and high control wells (100% kynurenine or 0% cytotoxicity) contained 0.5 μL of DMSO in the presence of stimulated (+IFN-γ/+LPS) PBMCs for both the mass spectrometry and cytotoxicity assays.
# Frozen stocks of PBMCs were washed and recovered in RPMI 1640 medium (Thermo Fisher Scientific, Inc., Waltham, Mass.) supplemented with 10% v/v heat-inactivated fetal bovine serum (FBS) (Thermo Fisher Scientific, Inc., Waltham, Mass.), and 1× penicillin-streptomycin antibiotic solution (Thermo Fisher Scientific, Inc., Waltham, Mass.). The cells were diluted to 1,000,000 cells/mL in the supplemented RPMI 1640 medium. 50 μL of either the cell suspension, for the mass spectrometry assay, or medium alone, for the cytotoxicity assay, were added to the low control wells, on the previously prepared 384-well compound plates, resulting in 50,000 cells/well or 0 cells/well respectively. IFN- y and LPS were added to the remaining cell suspension at final concentrations of 100 ng/ml and 50 ng/ml respectively, and 50 μL of the stimulated cells were added to all remaining wells on the 384-well compound plates. The plates, with lids, were then placed in a 37° C, 5% CO2 humidified incubator for 2 days.
# Following incubation, the 384-well plates were removed from the incubator and allowed to equilibrate to room temperature for 30 minutes. For the cytotoxicity assay, CellTiter-Glo® was prepared according to the manufacturer's instructions, and 40 μL were added to each plate well. After a twenty minute incubation at room temperature, luminescence was read on an EnVision® Multilabel Reader (Perkin Elmer Inc., Waltham, Mass.). For the mass spectrometry assay, 10 μL of supernatant from each well of the compound-treated plates were added to 40 μL of acetonitrile, containing 10 μM of an internal standard for normalization, in 384-well, polypropylene, V-bottom plates (Greiner Bio-One, Kremsmunster, Austria) to extract the organic analytes. Following centrifugation at 2000 rpm for 10 minutes, 10 μL from each well of the acetonitrile extraction plates were added to 90 μL of sterile, distilled H2O in 384-well, polypropylene, V-bottom plates for analysis of kynurenine and the internal standard on the RapidFire 300 (Agilent Technologies, Santa Clara, Calif.) and 4000 QTRAP MS (SCIEX, Framingham, Mass.). MS data were integrated using Agilent Technologies' RapidFire Integrator software, and data were normalized for analysis as a ratio of kynurenine to the internal standard.
# [2] = tested on: human peripheral blood mononuclear cells (PBMC); assay: PBMC cytotoxicity assay (CellTiter-Glo); type: cell-based; settings: 48 h, human PBMC stimulated with IFN-γ and LPS, 2 days, read-out: PBMC TOX pIC50 (converted)
# Sequence of UniProt P14902 (P14902 whole entry): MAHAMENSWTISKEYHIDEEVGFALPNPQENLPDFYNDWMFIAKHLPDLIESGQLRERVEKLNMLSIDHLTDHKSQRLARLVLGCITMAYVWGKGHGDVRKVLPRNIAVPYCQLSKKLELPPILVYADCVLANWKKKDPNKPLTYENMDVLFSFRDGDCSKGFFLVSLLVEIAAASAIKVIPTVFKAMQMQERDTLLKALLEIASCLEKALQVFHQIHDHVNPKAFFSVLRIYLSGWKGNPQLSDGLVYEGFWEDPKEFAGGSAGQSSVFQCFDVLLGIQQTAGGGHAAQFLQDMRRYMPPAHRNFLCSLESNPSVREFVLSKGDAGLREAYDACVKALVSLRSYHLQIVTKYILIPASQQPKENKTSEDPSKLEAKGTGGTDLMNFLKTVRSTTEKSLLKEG
Compound,IC50 [1],IC50 [2]
"CC(C)CN(CC(C)C)C(=O)C[C@H]1CC[C@@H](c2ccnc3ccccc32)CC1 [Example 1, N,N-diisobutyl-2-(cis-4-(quinolin-4-yl)cyclohexyl)acetamide]",2 µM,> 10 µM
"CC(C)CN(CC(C)C)C(=O)C[C@H]1CC[C@H](c2ccnc3ccccc32)CC1 [Example 2, N,N-diisobutyl-2-(trans-4-(quinolin-4-yl)cyclohexyl)acetamide]",3.98 µM,> 10 µM
CC(C)CC(CC(C)C)NC(=O)C[C@H]1CC[C@H](c2ccnc3ccccc32)CC1 [Example 3],0.02 µM,> 10 µM
CC(C)CC(CC(C)C)NC(=O)C[C@H]1CC[C@@H](c2ccnc3ccccc32)CC1 [Example 4],0.126 µM,> 10 µM
C[C@H]1CC[C@H](NC(=O)C[C@H]2CC[C@@H](c3ccnc4ccccc43)CC2)CC1 [Example 5],2.51 µM,> 10 µM
C[C@H]1CC[C@H](NC(=O)C[C@H]2CC[C@H](c3ccnc4ccccc43)CC2)CC1 [Example 6],0.158 µM,> 10 µM
CC(C)C(NC(=O)C[C@H]1CC[C@@H](c2ccnc3ccccc32)CC1)C(C)C [Example 7],0.158 µM,> 10 µM
CC(C)C(CO)NC(=O)C[C@H]1CC[C@H](c2ccnc3ccccc32)CC1 (stereo partly shown) [Example 8],,> 10 µM
CC(C)C(CO)NC(=O)C[C@H]1CC[C@@H](c2ccnc3ccccc32)CC1 (stereo partly shown) [Example 9],> 3.16 µM,> 10 µM
CC(CCO)NC(=O)C[C@H]1CC[C@H](c2ccnc3ccccc32)CC1 (stereo partly shown) [Example 10],3.98 µM,> 10 µM
CC(CCO)NC(=O)C[C@H]1CC[C@@H](c2ccnc3ccccc32)CC1 (stereo partly shown) [Example 11],> 10 µM,> 10 µM
"CC(C)N(CCO)C(=O)CC1CCC(c2ccnc3ccccc23)CC1 (stereo not shown) [Example 12, N-(2-hydroxyethyl)-N-isopropyl-2-(4-(quinolin-4-yl)cyclohexyl) acetamide]",> 10 µM,> 10 µM
"CC(C)N(CCCO)C(=O)CC1CCC(c2ccnc3ccccc23)CC1 (stereo not shown) [Example 13, N-(3-hydroxypropyl)-N-isopropyl-2-(4-(quinolin-4-yl)cyclohexyl) acetamide]",> 10 µM,> 10 µM
CC(C)[C@H](NC(=O)C[C@H]1CC[C@@H](c2ccnc3ccccc32)CC1)C(N)=O [Example 14],> 10 µM,> 10 µM
CC(C)[C@H](NC(=O)C[C@H]1CC[C@H](c2ccnc3ccccc32)CC1)C(N)=O [Example 15],> 10 µM,> 10 µM
CC(C)[C@@H](NC(=O)C[C@H]1CC[C@@H](c2ccnc3ccccc32)CC1)C(N)=O [Example 16],> 10 µM,> 10 µM
c1ccc2[nH]c(C[C@H]3CC[C@@H](c4ccnc5ccccc54)CC3)nc2c1 [Example 17],0.1 µM,> 10 µM
c1ccc2[nH]c(C[C@H]3CC[C@H](c4ccnc5ccccc54)CC3)nc2c1 [Example 18],1.58 µM,> 10 µM
C[C@@H](c1nc2ccccc2[nH]1)[C@H]1CC[C@@H](c2ccnc3ccccc32)CC1 [Example 19],0.00501 µM,> 10 µM
C[C@@H](c1nc2ccccc2[nH]1)[C@H]1CC[C@H](c2ccnc3ccccc32)CC1 [Example 20],0.158 µM,> 10 µM
C[C@@H](c1nc2cccc(Cl)c2[nH]1)C1CCC(c2ccnc3ccccc23)CC1 (stereo partly shown) [Example 21],0.0501 µM,> 10 µM
"c1ccc2oc(C[C@H]3CC[C@@H](c4ccnc5ccccc54)CC3)nc2c1 [Example 22, 2-(((1s,4s)-4-(quinolin-4-yl)cyclohexyl)methyl)benzo[d]oxazole]",3.98 µM,> 10 µM

Compound,IC50 [1],IC50 [2]
"c1ccc2oc(C[C@H]3CC[C@H](c4ccnc5ccccc54)CC3)nc2c1 [Example 23, 2-(((1 r, 4r)-4-(quinolin-4-yl)cyclohexyl)methyl)benzo[d]oxazole]",> 10 µM,> 10 µM
"c1ccc(-c2coc(C[C@H]3CC[C@H](c4ccnc5ccccc54)CC3)n2)cc1 [Example 24, 4-phenyl-2-((trans-4-(quinolin-4-yl)cyclohexyl)methyl)oxazole]",,> 10 µM
c1ccc(-c2coc(C[C@H]3CC[C@@H](c4ccnc5ccccc54)CC3)n2)cc1 [Example 25],2 µM,> 10 µM
CC(C)Cc1coc(C[C@H]2CC[C@H](c3ccnc4ccccc43)CC2)n1 [Example 26],3.98 µM,> 10 µM
CC(C)Cc1coc(C[C@H]2CC[C@@H](c3ccnc4ccccc43)CC2)n1 [Example 27],1.58 µM,> 10 µM
CC(C)c1coc(C[C@H]2CC[C@H](c3ccnc4ccccc43)CC2)n1 [Example 28],> 10 µM,> 10 µM
CC(C)c1coc(C[C@H]2CC[C@@H](c3ccnc4ccccc43)CC2)n1 [Example 29],2 µM,> 10 µM
"c1ccc(-c2c[nH]c(C[C@H]3CC[C@H](c4ccnc5ccccc54)CC3)n2)cc1 [Example 30, 4-(trans-4-((4-ohenv1-1H-imidazol-2-yl)methyl)cyclohexyl)quinoline]",1.26 µM,> 10 µM
c1ccc(-c2c[nH]c(C[C@H]3CC[C@@H](c4ccnc5ccccc54)CC3)n2)cc1 [Example 31],0.0794 µM,> 10 µM
C[C@@H](c1nc(-c2ccccc2)c[nH]1)C1CCC(c2ccnc3ccccc23)CC1 (stereo partly shown) [Example 32],0.0158 µM,> 10 µM
C[C@@H](c1nc(-c2ccccc2Cl)c[nH]1)C1CCC(c2ccnc3ccccc23)CC1 (stereo partly shown) [Example 33],0.0794 µM,> 10 µM
C[C@@H](c1nc(-c2ccc(Cl)cc2)c[nH]1)[C@H]1CC[C@@H](c2ccnc3ccccc32)CC1 [Example 34],0.501 µM,> 10 µM
C[C@@H](c1nc(-c2cccc(Cl)c2)c[nH]1)[C@H]1CC[C@@H](c2ccnc3ccccc32)CC1 [Example 35],0.158 µM,> 10 µM
"CC(C)c1nnc(C[C@H]2CC[C@@H](c3ccnc4ccccc43)CC2)[nH]1 [Example 36, 4-(cis-4-((5-isopropyl-4H-1,2,4-triazol-3-yl)methyl)cyclohexyl) quinoline]",,> 10 µM
"CC(C)c1nnc(C[C@H]2CC[C@H](c3ccnc4ccccc43)CC2)[nH]1 [Example 37, 4-(trans-4-((5-isopropyl-4H-1,2,4-triazol-3-yl)methyl)cyclohexyl)quinoline]",6.31 µM,> 10 µM
"O=c1oc2ccccc2n1C[C@H]1CC[C@@H](c2ccnc3ccccc32)CC1 [Example 38, 3-((cis-4-(quinolin-4-yl)cyclohexyl)methyl)benzo[d]oxazol-2(3H)-one]",2 µM,> 10 µM
O=c1oc2ccccc2n1C[C@H]1CC[C@H](c2ccnc3ccccc32)CC1 [Example 39],2.51 µM,> 10 µM
O=c1[nH]c2ccccc2n1C[C@H]1CC[C@@H](c2ccnc3ccccc32)CC1 [Example 40],2.51 µM,> 10 µM
O=c1[nH]c2ccccc2n1C[C@H]1CC[C@H](c2ccnc3ccccc32)CC1 [Example 41],0.316 µM,> 10 µM
"CC(C)c1cn(C[C@H]2CC[C@@H](c3ccnc4ccccc43)CC2)cn1 [Example 42, 4-(cis-4-((4-isopropyl-1H-imidazol-1-yl)methyl)cyclohexyl)quinoline]",3.98 µM,> 10 µM
"CC(C)(NC[C@H]1CC[C@@H](c2ccnc3ccccc32)CC1)c1ccccc1 [Example 45, 2-phenyl-N-((cis-4-(quinolin-4-yl)cyclohexyl)methyl)propan-2-amine]",,> 10 µM
